{"source": "paper PMC9911399", "about": "“Two distinct binding modes provide the RNA-binding protein RbFox with extraordinary sequence specificity”", "binders": {"B1": {"name": "ACGCUAA (DNA:RNA)", "RNA": "GGGAGACCGGAAUUCAGAUUGUCCACGCUAAUUAAAUCCCGUCGUAGCCACCA", "DNA 1": "CAATCTGAATTCCGGTCTCCC", "DNA 2": "TGGTGGCTACGACGGGATT"}, "B2": {"name": "CAGACUG (DNA:RNA)", "RNA": "B1 RNA with A25C, C26A, C28A, U29C, A30U, A31G", "DNA 1": "CAATCTGAATTCCGGTCTCCC", "DNA 2": "TGGTGGCTACGACGGGATT"}, "B3": {"name": "GACUGCC (DNA:RNA)", "RNA": "GGGAGACCGGAAUUCAGAUUGUCCGACUGCCUUAAAUCCCGUCGUAGCCACCA", "DNA 1": "CAATCTGAATTCCGGTCTCCC", "DNA 2": "TGGTGGCTACGACGGGATT"}, "B4": {"name": "GCGUGGA (DNA:RNA)", "RNA": "B1 RNA with A25G, C28U, U29G, A30G", "DNA 1": "CAATCTGAATTCCGGTCTCCC", "DNA 2": "TGGTGGCTACGACGGGATT"}, "B5": {"name": "CAACGAG (DNA:RNA)", "RNA": "B1 RNA with A25C, C26A, G27A, U29G, A31G", "DNA 1": "CAATCTGAATTCCGGTCTCCC", "DNA 2": "TGGTGGCTACGACGGGATT"}, "B6": {"name": "AAGUUAA (DNA:RNA)", "RNA": "B1 RNA with C26A, C28U", "DNA 1": "CAATCTGAATTCCGGTCTCCC", "DNA 2": "TGGTGGCTACGACGGGATT"}, "B7": {"name": "UAUGCGG (DNA:RNA)", "RNA": "B3 RNA with G25U, C27U, U28G, G29C, C30G, C31G", "DNA 1": "CAATCTGAATTCCGGTCTCCC", "DNA 2": "TGGTGGCTACGACGGGATT"}, "B8": {"name": "UUGAGUG (DNA:RNA)", "RNA": "B1 RNA with A25U, C26U, C28A, U29G, A30U, A31G", "DNA 1": "CAATCTGAATTCCGGTCTCCC", "DNA 2": "TGGTGGCTACGACGGGATT"}, "B9": {"name": "GGCUCGA (DNA:RNA)", "RNA": "B3 RNA with A26G, G29C, C30G, C31A", "DNA 1": "CAATCTGAATTCCGGTCTCCC", "DNA 2": "TGGTGGCTACGACGGGATT"}, "B10": {"name": "CAGCAUG (DNA:RNA)", "RNA": "B1 RNA with A25C, C26A, U29A, A30U, A31G", "DNA 1": "CAATCTGAATTCCGGTCTCCC", "DNA 2": "TGGTGGCTACGACGGGATT"}, "B11": {"name": "AUGCUAG (DNA:RNA)", "RNA": "B1 RNA with C26U, A31G", "DNA 1": "CAATCTGAATTCCGGTCTCCC", "DNA 2": "TGGTGGCTACGACGGGATT"}, "B12": {"name": "GAUUCAG (DNA:RNA)", "RNA": "B3 RNA with C27U, G29C, C30A, C31G", "DNA 1": "CAATCTGAATTCCGGTCTCCC", "DNA 2": "TGGTGGCTACGACGGGATT"}, "B13": {"name": "UACUAAC (DNA:RNA)", "RNA": "B3 RNA with G25U, G29A, C30A", "DNA 1": "CAATCTGAATTCCGGTCTCCC", "DNA 2": "TGGTGGCTACGACGGGATT"}, "B14": {"name": "CCUCAAG (DNA:RNA)", "RNA": "B1 RNA with A25C, G27U, U29A, A31G", "DNA 1": "CAATCTGAATTCCGGTCTCCC", "DNA 2": "TGGTGGCTACGACGGGATT"}, "B15": {"name": "GAGAAGU (DNA:RNA)", "RNA": "B3 RNA with C27G, U28A, G29A, C30G, C31U", "DNA 1": "CAATCTGAATTCCGGTCTCCC", "DNA 2": "TGGTGGCTACGACGGGATT"}, "B16": {"name": "UGGGCGC (DNA:RNA)", "RNA": "B1 RNA with A25U, C26G, C28G, U29C, A30G, A31C", "DNA 1": "CAATCTGAATTCCGGTCTCCC", "DNA 2": "TGGTGGCTACGACGGGATT"}, "B17": {"name": "CGUGAAU (DNA:RNA)", "RNA": "B1 RNA with A25C, C26G, G27U, C28G, U29A, A31U", "DNA 1": "CAATCTGAATTCCGGTCTCCC", "DNA 2": "TGGTGGCTACGACGGGATT"}, "B18": {"name": "UUAUCAC (DNA:RNA)", "RNA": "B3 RNA with G25U, A26U, C27A, G29C, C30A", "DNA 1": "CAATCTGAATTCCGGTCTCCC", "DNA 2": "TGGTGGCTACGACGGGATT"}, "B19": {"name": "UUUUUAA (DNA:RNA)", "RNA": "B1 RNA with A25U, C26U, G27U, C28U", "DNA 1": "CAATCTGAATTCCGGTCTCCC", "DNA 2": "TGGTGGCTACGACGGGATT"}, "B20": {"name": "GAUUAAG (DNA:RNA)", "RNA": "B3 RNA with C27U, G29A, C30A, C31G", "DNA 1": "CAATCTGAATTCCGGTCTCCC", "DNA 2": "TGGTGGCTACGACGGGATT"}, "B21": {"name": "ACGGCGA (DNA:RNA)", "RNA": "B1 RNA with C28G, U29C, A30G", "DNA 1": "CAATCTGAATTCCGGTCTCCC", "DNA 2": "TGGTGGCTACGACGGGATT"}, "B22": {"name": "CUGUUUC (DNA:RNA)", "RNA": "B1 RNA with A25C, C26U, C28U, A30U, A31C", "DNA 1": "CAATCTGAATTCCGGTCTCCC", "DNA 2": "TGGTGGCTACGACGGGATT"}, "B23": {"name": "GCACUGC (DNA:RNA)", "RNA": "B1 RNA with A25G, G27A, A30G, A31C", "DNA 1": "CAATCTGAATTCCGGTCTCCC", "DNA 2": "TGGTGGCTACGACGGGATT"}, "B24": {"name": "AGUAUCU (DNA:RNA)", "RNA": "B1 RNA with C26G, G27U, C28A, A30C, A31U", "DNA 1": "CAATCTGAATTCCGGTCTCCC", "DNA 2": "TGGTGGCTACGACGGGATT"}, "B25": {"name": "UUUUCGC (DNA:RNA)", "RNA": "B3 RNA with G25U, A26U, C27U, G29C, C30G", "DNA 1": "CAATCTGAATTCCGGTCTCCC", "DNA 2": "TGGTGGCTACGACGGGATT"}, "B26": {"name": "AACCGCA (DNA:RNA)", "RNA": "B3 RNA with G25A, U28C, C31A", "DNA 1": "CAATCTGAATTCCGGTCTCCC", "DNA 2": "TGGTGGCTACGACGGGATT"}, "B27": {"name": "CAAUGUG (DNA:RNA)", "RNA": "B3 RNA with G25C, C27A, C30U, C31G", "DNA 1": "CAATCTGAATTCCGGTCTCCC", "DNA 2": "TGGTGGCTACGACGGGATT"}, "B28": {"name": "CGGUGAG (DNA:RNA)", "RNA": "B1 RNA with A25C, C26G, C28U, U29G, A31G", "DNA 1": "CAATCTGAATTCCGGTCTCCC", "DNA 2": "TGGTGGCTACGACGGGATT"}, "B29": {"name": "CGUAAAA (DNA:RNA)", "RNA": "B1 RNA with A25C, C26G, G27U, C28A, U29A", "DNA 1": "CAATCTGAATTCCGGTCTCCC", "DNA 2": "TGGTGGCTACGACGGGATT"}, "B30": {"name": "UAGUUGG (DNA:RNA)", "RNA": "B1 RNA with A25U, C26A, C28U, A30G, A31G", "DNA 1": "CAATCTGAATTCCGGTCTCCC", "DNA 2": "TGGTGGCTACGACGGGATT"}, "B31": {"name": "CUAUCAG (DNA:RNA)", "RNA": "B1 RNA with A25C, C26U, G27A, C28U, U29C, A31G", "DNA 1": "CAATCTGAATTCCGGTCTCCC", "DNA 2": "TGGTGGCTACGACGGGATT"}}, "note": "Residue numbers refer to the chain shown, from its start. Some of the results follow.", "data": [{"molecular_target": "T1, RBFOX1 RRM RbFoxmut (Fox-RRM*) (Homo sapiens, UniProt Q9NWB1 109-208, R118D;E147R;N151S;E152T)", "T1 sequence": "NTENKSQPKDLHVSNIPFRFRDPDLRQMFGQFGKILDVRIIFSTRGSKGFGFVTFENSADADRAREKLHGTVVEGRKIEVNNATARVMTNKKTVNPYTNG", "assay": "EMSA; HiTS-Eq, 1 nM pool, 10 min; buffer printed only for the single-RNA assays: 10 mM Tris pH 7.5, 150 mM NaCl, 3.4 mM EDTA, 0.001% NP-40, 30 C", "details": "tags: His6 N-terminal (pET28a); label: 5' 32P", "summary_of_the_method": "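Purified wild-type or mutant RbFox RRM at increasing concentrations was equilibrated with 1 nM of 5′-radiolabelled RNA carrying 7 randomized nucleotides for 10 min in 50 µL. Unbound RNA was separated by 8% native PAGE and sequenced. Relative association constants came from read-count changes of each RNA species compared with the control reaction, normalised to the cognate motif.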", "values": [{"binder": "B1", "binding signal": "0.138 KA relative to UGCAUGU"}, {"binder": "B2", "binding signal": "0.0995 KA relative to UGCAUGU"}, {"binder": "B3", "binding signal": "0.173 KA relative to UGCAUGU"}, {"binder": "B4", "binding signal": "0.092 KA relative to UGCAUGU"}, {"binder": "B5", "binding signal": "0.0907 KA relative to UGCAUGU"}, {"binder": "B6", "binding signal": "0.143 KA relative to UGCAUGU"}, {"binder": "B7", "binding signal": "0.118 KA relative to UGCAUGU"}, {"binder": "B8", "binding signal": "0.277 KA relative to UGCAUGU"}, {"binder": "B9", "binding signal": "0.204 KA relative to UGCAUGU"}, {"binder": "B10", "binding signal": "0.965 KA relative to UGCAUGU"}, {"binder": "B11", "binding signal": "0.179 KA relative to UGCAUGU"}, {"binder": "B12", "binding signal": "0.155 KA relative to UGCAUGU"}, {"binder": "B13", "binding signal": "0.0859 KA relative to UGCAUGU"}, {"binder": "B14", "binding signal": "0.111 KA relative to UGCAUGU"}, {"binder": "B15", "binding signal": "0.098 KA relative to UGCAUGU"}, {"binder": "B16", "binding signal": "0.135 KA relative to UGCAUGU"}, {"binder": "B17", "binding signal": "0.123 KA relative to UGCAUGU"}, {"binder": "B18", "binding signal": "0.115 KA relative to UGCAUGU"}, {"binder": "B19", "binding signal": "0.1 KA relative to UGCAUGU"}, {"binder": "B20", "binding signal": "0.0936 KA relative to UGCAUGU"}, {"binder": "B21", "binding signal": "0.1 KA relative to UGCAUGU"}, {"binder": "B22", "binding signal": "0.189 KA relative to UGCAUGU"}, {"binder": "B23", "binding signal": "0.0626 KA relative to UGCAUGU"}, {"binder": "B24", "binding signal": "0.142 KA relative to UGCAUGU"}, {"binder": "B25", "binding signal": "0.0719 KA relative to UGCAUGU"}, {"binder": "B26", "binding signal": "0.129 KA relative to UGCAUGU"}, {"binder": "B27", "binding signal": "0.0932 KA relative to UGCAUGU"}, {"binder": "B28", "binding signal": "0.106 KA relative to UGCAUGU"}, {"binder": "B29", "binding signal": "0.102 KA relative to UGCAUGU"}, {"binder": "B30", "binding signal": "0.107 KA relative to UGCAUGU"}, {"binder": "B31", "binding signal": "0.0894 KA relative to UGCAUGU"}]}]}
